# Assay results taken from PubChem BioAssay AID1346428 (National Center for Advancing Translational Sciences (NCATS), 2018).
# In all, about 48,000 compounds went through this assay and about 1,200 (2.5%) were called active. Another 2% or so got no clear call; they are omitted.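 The calls were made as follows: active = activation of at least 60% and not above a set upper limit (about 1 call in 100 departs from these limits); inconclusive = activation of 40% to 60%, or above that upper limit; inactive = activation under 40%.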 The list shows a part of the results.
# Biological target: Probable G-protein coupled receptor 32 (Homo sapiens) (UniProt O75388)
# Chain of UniProt O75388 (O75388 whole entry, looked up): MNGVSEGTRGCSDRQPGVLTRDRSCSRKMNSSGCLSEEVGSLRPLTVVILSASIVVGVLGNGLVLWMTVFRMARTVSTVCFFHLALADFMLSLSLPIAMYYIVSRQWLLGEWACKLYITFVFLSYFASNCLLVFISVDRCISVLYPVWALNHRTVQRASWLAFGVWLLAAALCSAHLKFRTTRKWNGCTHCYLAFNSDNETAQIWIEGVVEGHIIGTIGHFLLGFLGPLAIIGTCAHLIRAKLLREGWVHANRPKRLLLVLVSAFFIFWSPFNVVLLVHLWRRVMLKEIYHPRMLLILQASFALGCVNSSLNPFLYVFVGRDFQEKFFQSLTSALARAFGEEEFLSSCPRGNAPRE
# Test: qHTS for Agonists of Human Resolvin D1 Receptor DRV1; also: 0% is about no effect
# Settings: CHO-K1 GPR32 beta-arrestin PathHunter luminescence, 90 min; at 76.9 µM; stronger effect = higher value; zero percent set by DMSO-only wells
# Summary of the method: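 Readings come from a cell-based beta-arrestin complementation format: CHO-K1 GPR32 stable cells (2,500/well) treated 90 min with compounds, then beta-Gal substrate added for 1 h before chemiluminescence imaging.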
row,Structure (SMILES),activation
1,COC(=O)CN1C(=O)C(O)(c2c(C)[nH]c3ccccc23)c2ccccc21 (centres undefined),inactive: -8.99%
2,COc1ccccc1CNc1nccn(-c2ccc(F)cc2)c1=O,inactive: 30.2%
3,CCCn1c2ccccc2c2cnn(CC(=O)NCC3CCN(Cc4ccccc4C)CC3)c(=O)c21,inactive: -5.82%
4,Cc1cccc(C(=O)N2CCc3cc(CNC(=O)c4ccco4)ccc32)c1,inactive: 3.42%
5,CCOCCc1nn2c(=O)cc(COC(=O)c3ccc(NC(=O)c4cccs4)cc3)nc2s1,inactive: 5.35%
6,CCCNC(=O)c1ccc(Cn2c(SCC(=O)NC(C)C)nc3ccccc3c2=O)cc1,inactive: -6.68%
7,CCc1oc2ccccc2c1C(=O)c1cc(Br)c(O)c(Br)c1,inactive: 37.6%
8,CCOc1ccc(CCNC(=O)NCc2noc3ccc(C)cc23)cc1,inactive: -7.03%
9,COc1ccc(C(=O)Nc2nc(-c3ccc(Br)cc3)ns2)cc1,inactive: 1.59%
10,Cc1csc2nc(COc3ccc(NC(=O)c4ccccc4F)cc3)cc(=O)n12,inactive: 12.3%
11,O=C(NC1CC(=O)N(c2ccc(F)cc2)C1)c1ccc(S(=O)(=O)N2CCOCC2)cc1 (centres undefined),inactive: 0.543%
12,COc1ccc(NC(=O)Cn2c(=O)c3cccn3c3ccccc32)cc1,inactive: -13.5%
13,Cn1c(=O)c2c(-c3ccccc3)n3c(c2n(C)c1=O)C(c1ccc([N+](=O)[O-])cc1)Nc1ccccc1-3 (centres undefined),inactive: -11.9%
14,COc1ccc(S(=O)(=O)NCCc2sc(-c3cccnc3)nc2C)cc1,inactive: 24.2%
15,CCOCCCN1C(=O)CN(C2CCCCCC2)C(=O)C1c1ccc(OCC)c(OC)c1 (centres undefined),inactive: -14.5%
16,CCOC(=O)c1c(NC(=O)c2ccc(S(=O)(=O)N3CCCC(C)C3)cc2)sc2c1CC(C)(C)NC2(C)C (centres undefined),active: 120%
17,Cc1ccc(-n2ncc3c(Nc4ccc5c(c4)OCCO5)ncnc32)cc1Cl,inactive: 0.551%
18,Cc1ccc(C(=O)c2oc3ccccc3c2NC(=O)c2cc(-c3ccccc3)on2)cc1,inactive: 0.254%
19,CCOC(=O)c1[nH]c(C)c(CCC(=O)N2CCN(c3ccc(OC)cc3)CC2)c1C,inactive: -18.6%
20,CCCCN(C)S(=O)(=O)c1ccc(C(=O)Nc2sc3c(c2C(=O)OCC)CCN(C(C)C)C3)cc1,inactive: -27.4%
21,CCOC(=O)C1CCN(C(=O)C2CCN(S(=O)(=O)c3c(C)noc3/C=C/c3ccc(C)cc3)CC2)CC1,inactive: -20.7%

row,Structure (SMILES),activation
1,CCSc1nc(-c2ccccc2)nc2c1Cc1c(CO)cnc(C)c1O2,inactive: 3.43%
2,COc1cc(OC)cc(C(=O)Nc2ccc3c(c2)CCCN3C(=O)c2cccs2)c1,inactive: -18.5%
3,CCCC1=Nc2cc(C(=O)NCc3ccccc3)ccc2Sc2ccccc21,inactive: -22.7%
4,O=C1OC2(c3ccccc31)c1cc(Br)c(O)c(Br)c1Oc1c2cc(Br)c(O)c1Br,active: 68.3%
5,COc1ccc(NC(=O)c2cccc3c(=O)c4c([nH]c23)CCCC4)cc1,inactive: 1.5%
6,O=C(O)CCC(=O)N1CCc2cc(S(=O)(=O)NCc3ccc(F)cc3)ccc21,inactive: 8.03%
7,COc1ccccc1Cc1nc2ccccc2nc1SCC(=O)NCc1ccc(C)cc1,inactive: -13.4%
8,COc1ccc(C)cc1NC(=O)Cn1nc(N2CCN(c3ccccc3OC)CC2)ccc1=O,inactive: 3.29%
9,Cc1noc(C)c1S(=O)(=O)N(CC(=O)NCc1ccccc1)c1ccc(C(C)C)cc1,inactive: -15.8%
10,COc1ccccc1CNC(=O)C(=O)NCC(c1cccnc1)N1CCN(c2ccccc2)CC1 (centres undefined),inactive: -11.3%
11,COc1ccc(-c2nc(SCC(=O)NC3CCCC3)c(-c3ccc(F)cc3)[nH]2)cc1OC,inactive: -20.6%
12,O=C(COCc1cc(-c2ccco2)on1)Nc1cc(Cl)ccc1O,inactive: -4.88%
13,CC(=C(CCOC(=O)C(C)C)SSC(CCOC(=O)C(C)C)=C(C)N(C=O)Cc1cnc(C)nc1N)N(C=O)Cc1cnc(C)nc1N,inactive: 24.4%
14,O=C(Nc1ccc2oc(-c3cccnc3)nc2c1)c1ccccc1F,inactive: 6.48%
15,CC(=O)N1CCCc2cc(S(=O)(=O)Nc3ccc(Cl)cc3F)ccc21,inactive: -12.1%
16,COCCNC(=O)CCn1nc(-c2ccc(Cl)cc2)c2ccccc2c1=O,inactive: -11.9%
17,COc1ccc(CC(=O)N2CCc3c([nH]c4ccccc34)C2c2ccc(SC)cc2)cc1 (centres undefined),inactive: -28%
18,CC1CCN(C(c2ccc(F)cc2)c2sc3nc(-c4ccco4)nn3c2O)CC1 (centres undefined),inactive: 24.5%
19,COc1ccc(C(=O)N2CCN(C(=O)COc3ccccc3)CC2)cc1OC,inactive: -0.0605%
20,COc1ccc(-c2nc3ccccc3s2)cc1NC(=O)c1cc(OC)c(OC)c(OC)c1,inactive: 18.9%
21,COc1ccc(NC(=O)C(NC(=O)/C=C\c2ccc3c(c2)OCO3)c2ccc(C)cc2)cc1 (centres undefined),inactive: -5.17%

row,Structure (SMILES),activation
1,CCc1ccc(-n2c(N3CCN(c4ccc(F)cc4)CC3)nc3ccccc3c2=O)cc1,inactive: -31.2%
2,O=C(c1ccc2c(c1)N(Cc1ccccc1)C(=O)c1ccccc1S2(=O)=O)N1CCOCC1,inactive: -23.5%
3,Cc1c(C2=CCN(S(=O)(=O)c3ccc(Br)cc3)CC2)c2ccccc2n1CC(=O)N1CCCC1,inactive: -16.1%
4,Cc1ccc(CNC(=O)CSc2c3c(nc4ccc(Cl)cc24)CCCC3)cc1,inactive: -9.11%
5,Cc1ccccc1CN1CCc2nc(N3CCN(c4ccccn4)CC3)ncc2C1,inactive: -1.24%
6,Cc1ccc2nc(-c3ccc(C)c(NC(=O)Cc4ccccc4)c3)oc2c1,inactive: -19.1%
7,CCOc1ccc(NC(=O)CN(Cc2ccccc2)S(=O)(=O)c2ccc(Cl)cc2)cc1,inactive: 47.3%
8,Cc1cc(C)cc(NS(=O)(=O)c2ccc3c(c2)OCC(C(=O)N2CCCC2)O3)c1 (centres undefined),inactive: -8.1%
9,COc1ccc2nc3oc(C(=O)Nc4cccc(C(F)(F)F)c4)cc3cc2c1,inactive: 3.76%
10,CCNC(=O)c1c(NC(=O)COc2ccc(F)cc2)sc2c1CCCC2,inactive: -3.56%
11,O=C(Nc1ccc(Br)cc1)N1CCC(CN2CCCC2)CC1,inactive: -9.32%
12,CCCC12CN3CC(C)(CN(C1)C3c1ccccc1Cl)C2=O (centres undefined),inactive: -8.25%
13,CCc1c(C)sc2c1CCN(C(=O)Nc1ccccc1C(=O)OC)C2c1ccc(F)cc1 (centres undefined),inactive: -4.25%
14,Cc1ccccc1NC(=O)CS(=O)(=O)c1cccc2nsnc12,inactive: -15.4%
15,Cc1c(Cl)cccc1NC(=O)c1ccc(NC(=O)N2CCSc3ncccc32)cc1,inactive: -1.35%
16,CCOc1ccc(C2C(C(=O)Nc3ccc(OC)cc3)=C(C)Nc3nc(SCc4ccc(Cl)cc4)nn32)cc1 (centres undefined),inactive: -32.1%
17,COc1ccc(NC(=O)CSc2c3c(nc4ccc(Cl)cc24)CCCC3)cc1Cl,inactive: -21.6%
18,COc1ccc(N2CCN(CCCNC(=O)c3ccc4nc(CCc5ccccc5)oc4c3)CC2)cc1,inactive: -6.74%
19,O=C(c1ccc2c(c1)N(Cc1ccc(F)cc1)CCS2)N1CCN(c2ccccc2)CC1,inactive: -34.3%
20,COc1ccc2c(c1)CC(C(=O)NCCN1CCN(c3cccc(Cl)c3)CC1)CO2 (centres undefined),inactive: -14.8%
21,CCCc1ccc(OCC(=O)Nc2scc(-c3cccs3)c2C(=O)OC)cc1,inactive: -4.56%

row,Structure (SMILES),activation
1,NC(=O)NC1NC(=O)NC1=O (centres undefined),inactive: -8.55%
2,Cc1nc(Oc2ccccc2C)c2oc3ccccc3c2n1,inactive: -7.51%
3,Cc1ccc(CNC(=O)c2sc3nc4n(c(=O)c3c2C)CCCC4)cc1,inactive: -6.57%
4,C#CCN1C(=O)C(O)(CC(=O)c2ccc(OC)c(OC)c2)c2cc(Br)ccc21 (centres undefined),inactive: -20%
5,COc1ccc(C2=NN(S(C)(=O)=O)C(c3cn(-c4ccccc4)nc3-c3cccs3)C2)cc1 (centres undefined),inactive: -5.7%
6,Cc1ccc(S(=O)(=O)N(CC(O)Cn2c3ccccc3c3ccccc32)c2cccc(C(=O)N(C)C)c2)cc1 (centres undefined),inactive: 26.7%
7,COc1ccc(C(=O)NCC(c2ccc3c(c2)OCO3)N2CCOCC2)cc1 (centres undefined),inactive: -10.7%
8,Cc1ccc(CN2C(=O)c3ccccc3Sc3ccc(C(=O)NCc4ccco4)cc32)cc1,inactive: -20.2%
9,CCN(C(=O)C1CCC(CNS(=O)(=O)c2cccc3nsnc23)CC1)c1cccc(C)c1 (centres undefined),inactive: 24.3%
10,CC1(C)CC(=O)c2cc(C(=O)Nc3ccc(Br)cc3)c(=O)[nH]c2C1,inactive: 4.5%
11,COc1ccc(NC(=O)C2=C(C)Nc3ncnn3C2c2ccc(C)o2)cc1 (centres undefined),inactive: -4.72%
12,CCCn1c(=N)c(C(=O)NCc2cccnc2)cc2c(=O)n3cccc(C)c3nc21,inactive: 8.36%
13,COc1cccc(-c2ccnc3c(-c4ccc(F)cc4)c(C)nn23)c1,inactive: -2.31%
14,Cc1ccc(Oc2nc3c(c(=O)n(Cc4ccccc4)c(=O)n3C)n2C)cc1C,inactive: 46%
15,Cc1oc2ncnc(N3CCOCC3)c2c1C(=O)N1CCN(c2cccc(C(F)(F)F)c2)CC1,inactive: -8.16%
16,O=C(Cc1ccc(NC(=O)N2CCSc3ncccc32)cc1)NCc1ccccc1,inactive: 3.58%
17,Cc1cc(C)cc(NC(=O)Cn2c(=O)n(C(C)C)c(=O)c3oc4ccccc4c32)c1,inactive: -5.54%
18,CN(C)CCOC(c1ccc(Cl)cc1)c1ccccn1 (centres undefined),inactive: -3.18%
19,Cc1ccc(-c2nc3ccccn3c2Nc2ccc3c(c2)OCCO3)s1,inactive: -20.2%
20,CCOc1ccccc1NC(=O)N(C)CCc1c(C)nn(CC)c1C,inactive: -7.14%
21,CCOc1ccc(C2N3CC4(C(C)C)CN2CC(C(C)C)(C3)C4=O)cc1OC (centres undefined),inactive: -2.34%
